Experimental data as given in PubChem BioAssay AID1645887 (National Center for Advancing Translational Sciences (NCATS), 2021).
Values joined by “and” are separate entries in the source; they are usually repeats but may differ in a detail not shown here. Equal entries are not always repeated. Among all 16,000 compounds or so, about 40 (0.2%) were called active. Roughly 1% stayed inconclusive and do not appear here. Calls follow the shape of the dose curve; as a rule, active = well fitted activation curve with a large enough effect; inconclusive = small, poorly fitted or top-dose-only effect, or another doubt; inactive = no such curve, though single readings can be large or run the other way. The list shows a part of the results.

These compounds were tested against Rap guanine nucleotide exchange factor 4 (Homo sapiens) (UniProt Q8WZA2) (assay: Validation qHTS for agonist of cAMP-regulated guanine nucleotide exchange factor 4 (EPAC2)). Conditions: EPAC2 Rap1B BODIPY-GDP exchange, fluorescence; activation: hits give high values.
Procedure, shortened: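 Fluorescent exchange assay: 100 nM EPAC2 with 250 nM RAP1B-BODIPY-GDP and 50 uM GDP; compound added, 5 min at room temperature, then read (ex 480/em 540 nm) every 5 min for 30 min. Normalized to 6.5 mM cAMP agonist control.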
% is scaled to controls: 0 for no effect and ±100 for the full control effect; potency is read from the fitted curve at half-maximal effect.
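For activation in this document: exchange makes BODIPY-GDP fluorescence drop when released from Rap1B; series mostly up to about 150 µM.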

Sequence of UniProt Q8WZA2 (Q8WZA2 whole entry, looked up): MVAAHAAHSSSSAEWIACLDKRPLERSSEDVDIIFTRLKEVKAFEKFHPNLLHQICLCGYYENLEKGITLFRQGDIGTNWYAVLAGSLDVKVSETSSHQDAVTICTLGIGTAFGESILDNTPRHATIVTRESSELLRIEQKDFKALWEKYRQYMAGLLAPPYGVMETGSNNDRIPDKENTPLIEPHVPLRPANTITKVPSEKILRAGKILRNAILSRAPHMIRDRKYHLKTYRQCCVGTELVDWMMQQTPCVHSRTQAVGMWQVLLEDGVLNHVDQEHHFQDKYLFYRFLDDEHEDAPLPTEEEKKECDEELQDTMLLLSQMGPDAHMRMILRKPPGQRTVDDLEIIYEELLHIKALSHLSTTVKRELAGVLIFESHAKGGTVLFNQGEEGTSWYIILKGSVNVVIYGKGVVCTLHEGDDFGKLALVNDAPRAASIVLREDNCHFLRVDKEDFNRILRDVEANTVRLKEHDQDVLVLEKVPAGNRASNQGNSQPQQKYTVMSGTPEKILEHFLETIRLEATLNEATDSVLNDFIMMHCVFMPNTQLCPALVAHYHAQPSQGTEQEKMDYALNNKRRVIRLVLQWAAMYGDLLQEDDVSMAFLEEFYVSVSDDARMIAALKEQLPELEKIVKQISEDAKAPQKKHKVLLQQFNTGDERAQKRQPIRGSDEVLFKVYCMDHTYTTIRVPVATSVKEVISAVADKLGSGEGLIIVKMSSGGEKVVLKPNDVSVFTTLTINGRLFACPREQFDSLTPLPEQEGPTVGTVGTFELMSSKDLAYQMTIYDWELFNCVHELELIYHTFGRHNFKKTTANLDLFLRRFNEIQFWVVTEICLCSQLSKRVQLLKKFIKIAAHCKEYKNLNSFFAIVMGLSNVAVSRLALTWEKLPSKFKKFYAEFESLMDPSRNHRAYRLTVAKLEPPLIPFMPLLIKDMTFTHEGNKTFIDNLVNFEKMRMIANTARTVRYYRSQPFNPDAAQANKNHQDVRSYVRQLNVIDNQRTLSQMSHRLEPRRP

Compound	activation	Potency
O=C1[C@H](Cc2ccccc2)NC/C=C\C[C@H](c2ccco2)N1Cc1ccccc1	inactive: -7.31%	–
CN1CCN(c2ncc3nc(-c4cccs4)c(=O)n(CCc4ccccc4)c3n2)CC1	inactive: -28%	–
O=C(NCC1Cc2cccc(-c3ncccn3)c2O1)C1CCCO1 (configuration not stated)	inactive: -1.15%	–
C/C1=C2N=C(/C=C3N=C(/C(C)=C4\[N-][C@@](C)([C@@H]5N=C1[C@](C)(CCC(=O)NCC(C)OP(=O)(O)O[C@H]1[C@@H](O)[C@@H](n6cnc7cc(C)c(C)cc76)O[C@@H]1CO)[C@H]5CC(N)=O)[C@@](C)(CC(N)=O)[C@@H]4CCC(N)=O)[C@@](C)(CC(N)=O)[C@@H]\3CCC(N)=O)C(C)(C)[C@@H]/2CCC(N)=O.CC(=O)O.[Co] (some centres not stated)	–	active: 56.2 µM
O=C(/C=C/c1ccc(O)c(O)c1)O[C@@H]1C[C@@](O)(C(=O)O)C[C@H](O)[C@@H]1O	inactive: -1.23%	–
CCC1C(=O)NCCN1Cc1ccc2c(c1)CN(Cc1ccc(OC)c(OC)c1)CCO2 (configuration not stated)	inactive: -5.29%	–
O=S(=O)(c1cccc2c(I)cccc12)N1CCCNCC1	inactive: -8.52% and inactive: -2.56%	–
CNC(=O)OCc1cccc(COC(=O)NC)n1	inactive: -0.137%	–
N#C/C(=C\c1ccc(O)c(O)c1)C(N)=O	inactive: -8.88% and inactive: -6.66%	–
CC(C)(C)C(=O)OCOP(=O)(COCCn1cnc2c(N)ncnc21)OCOC(=O)C(C)(C)C	inactive: 6.75%	–
c1ccc(CNc2ncncc2-c2ccc3c(c2)OCO3)cc1	inactive: -13.8%	–
CS(=O)(=O)CCNCc1ccc(-c2ccc3ncnc(Nc4ccc(OCc5cccc(F)c5)c(Cl)c4)c3c2)o1	inactive: 13.8%	–
O=C(Nc1ccc(O)cc1)c1ccccc1O	inactive: 5.21%	–
Cc1noc(C)c1C(=O)N1CCC[C@@]2(CCN(C(=O)NC(C)C)C2)C1	inactive: -14%	–
Cn1c(=O)c(-c2ccc(Cl)cc2)nc2cncnc21	inactive: -2.55%	–
COc1cc(-c2coc3cc(OC)c(OC)c(OC)c3c2=O)cc(OC)c1OC	inactive: -2.62%	–
COC(=O)CC1C(C)(C)C(OC(C)=O)C2CC3C4CC(=O)OC(c5ccoc5)[C@]4(C)CCC3[C@@]1(C)C2=O (some centres not stated)	inactive: 0.992%	–
N#CC[C@H](Cc1ccccc1)N1CC[C@@H](O)CCC1=O	inactive: -11.4%	–
Cc1ccccc1-c1cc(N(C)C)ncn1	inactive: -21.9%	–
O=c1c(-c2ccc(Cl)cc2)nc2cnc(N3CCOCC3)nc2n1C1CC1	inactive: -9.88%	–
CN(C)CC(C)(O)c1ccc2c(c1)CN(Cc1cn(C)c3ccccc13)CCO2 (configuration not stated)	inactive: 0.854%	–

Compound	activation	Potency
Nc1ccc(-c2nc3ccc(-c4nc5ccc(N)cc5[nH]4)cc3[nH]2)cc1	inactive: -13.5%	–
O=C(c1csnn1)N1CCC[C@@]2(CCN(Cc3ccccc3)C2)C1	inactive: -9.79%	–
COc1ncc2ncc(=O)n(CCc3ccccc3)c2n1	inactive: -6.96%	–
COC(=O)N1CCC2(CCCN(C(=O)Nc3ccccc3)C2)CC1	inactive: 5.29%	–
Clc1ccccc1-c1nc(NC2CCNCC2)c2ccccc2n1	inactive: -14.2%	–
CCC(=O)c1ccc(O)cc1	inactive: -10.5%	–
C[C@]12CCC3c4ccc(OC(=O)c5ccccc5)cc4CCC3C1CCC2=O (some centres not stated)	inactive: -2.25%	–
COC(=O)[C@@H]1CCCN1C(=O)c1c(OC)cc(=O)n2c1CCN(Cc1ccc3c(c1)CCO3)CC2	inactive: -9.5%	–
CCNc1ncc2nc(C)c(=O)n(Cc3cccs3)c2n1	inactive: -24.7%	–
Oc1ccc(Cl)c2cccnc12	inactive: -17.4% and inactive: -17.9%	–
Cc1ncc2c(c1CNC(=O)c1cncs1)CCN(C(=O)c1ccc(C(C)(C)C)cc1)C2	inactive: -24.2%	–
CC1CN(Cc2cccn2-c2ncccn2)Cc2cc(Cl)ccc2O1 (configuration not stated)	inactive: -8.02%	–
CN1CCc2ccccc2Cc2[nH]c3ccccc3c2CC1	inactive: -16.7% and inactive: -18.5%	–
CC(O)(COc1ccccc1)c1ccc2c(c1)CN(Cc1ccc3nsnc3c1)CCO2 (configuration not stated)	inactive: 16.5%	–
C#Cc1cccc(C(=O)NCc2nc(-c3ccccc3NC(C)=O)oc2C)c1	inactive: -5.78%	–
O=C(c1ccccc1)[C@@H]1O[C@H]1c1ccc(-c2ccccc2)cc1	inactive: -5.15%	–
O.O.O.O.O.O.O.O=S(=O)([O-])[O-].[Co+2]	inactive: -48.9%	–
COCc1c(C(=O)N2CCN(c3ccccc3O)CC2)cnn1-c1nccc(-c2cccs2)n1	inactive: -19.8%	–
COC(=O)CC1C2(C)CC34OC5(C)O[C@@]6(C7/C(=C(/O)C(C)C)C(=O)OC(c8ccoc8)[C@]7(C)C(OC(C)=O)C(OC(C)=O)[C@]6(O5)[C@@]13C)C(OC(C)=O)[C@]4(O)C2OC(=O)C(C)C (some centres not stated)	inactive: -28.6%	–
O=C(NC1CCCCC1)[C@@H]1CC=C[C@@H]2CCN(Cc3ccc(Cl)c(Cl)c3)C(=O)[C@@H]21	inactive: -4.53%	–
CC(C)NC(=O)N1CCC2(CC1)CCN(C(=O)c1cccn1C)CC2	inactive: -16.9%	–
